Measured values reported in the RNAGym collection of RNA variant scans (doi:10.7554/elife.90254).
Read counts are not given, so values of variants with three or more changes are uncertain.

B1: LINE1-mini (parent)
chain: GGCAGAGCUCAACACAGCGUGGCAAAGUGGCUGUGGCUAGACUGCC

Variants of: B1
Assay: self-cleavage, relative activity (ratio to wild type); higher = more cleavage; in vitro, sequencing; the parent is a self-cleaving ribozyme

| Variant | self-cleavage |
| --- | --- |
| GGCAGAGCUCAACACAGCGUGGCAAAGUCGCUGUGCCUGGACUGCC [G29C G36C A39G] | 0.03 |
| GGCUGAGAACAAUACAGCGUGGCAAGGUGGCUGUGGGUAGACUGCC [A4U C8A U9A C13U A26G C37G] | 0.26 |
| GGCAGAGCUCAACACAGUGUGGCAAUGUGGUUGUUGCUAGACUGCA [C18U A26U C31U G35U C46A] | 0.02 |
| GGCAGAGCUAAACACUGCGUGGCAAAGUGGCUUUGGCUAGACUGCC [C10A A16U G33U] | 0.04 |
| GGUAGAGCUCAACAGAGCGUGGCAAAGUGCCUGUGGCUAGACUGCC [C3U C15G G30C] | 0.03 |
| GGCAGAGCUCAACACAACGUGGCAAAGUGGCUGUGGCUAGUCCCCC [G17A A41U U43C G44C] | 0.02 |
| GGCAGAUCUCCACAACGCGUGGCAAAGUGGCCGUGGCUAGACUGCC [G7U A11C C15A A16C U32C] | 0.01 |
| GGCAGAGCUCAACACAGCGUGGCAAAGUGGCAGAGGCUAGACUGUC [U32A U34A C45U] | 0.02 |
| GGCACAGCUCAGCACAGCUUGGCAAAGUGGUUGUGCCUAGACUGCC [G5C A12G G19U C31U G36C] | 0.01 |
| UGCAUAGCUCCACACAGCGUGGCAAAGUGGCUGAGGCUAGACUGUC [G1U G5U A11C U34A C45U] | 0.01 |
| GCCAGAGAUCAACACAGCGUGGCAAAGUGGGCGUGGCUAGACUGCC [G2C C8A C31G U32C] | 0.05 |
| GGCAGAGCUCAAGACAGCGUCGCAAAGUGGCUGUGGCUAGUCUGCC [C13G G21C A41U] | 0.14 |
| AGCAGAGCUCAACACAGCGUGACAAAGUGGCUGUGGCUAGUCUGCU [G1A G22A A41U C46U] | 2.7 |
| GGCAGAGCUCAACACACCGUAUCAAAGUGGCGGUGGCUACACUGCC [G17C G21A G22U U32G G40C] | 0 |
| GUCAGAGCUCAAAACAGCGUGGCAAAGUGGCUGUGGCUAGAAUUCC [G2U C13A C42A G44U] | 0.04 |
| GGCAGAGCUCACCACAGCGUGGAAAAGUGGCUAUGGCUAGACUGCC [A12C C23A G33A] | 0.04 |
| GGCAGAGCUCAACACAGCGUUGCAAAGUGGAUGUGGCUAGGCUGCC [G21U C31A A41G] | 0.08 |
| GGCAGAGCUCAACACAUCGUGGCAAAGUGCCUGGGGCUCGACUGCU [G17U G30C U34G A39C C46U] | 0.02 |
| GGCAGAGCGCAAGACAGCGUGGCAAAGUGGCUGUGGGUAGACUGCC [U9G C13G C37G] | 0.06 |

| Variant | self-cleavage |
| --- | --- |
| GACAGAGCUCAACACAGGGUGGCAAAUUGAAUGUGGCUAGACUGCC [G2A C18G G27U G30A C31A] | 0.5 |
| GGCCCUGCUCAAAACAGCGUGGCAAAGUGGCUGUGGCUAGACUGCC [A4C G5C A6U C13A] | 0.2 |
| GGGGGAGCUCAACACUGCGUGCCAAAUUGUCUUUGGGUAGACUGCC [C3G A4G A16U G22C G27U G30U G33U C37G] | 0.16 |
| GGCAGAGUUUAACACAGCGUGGCAAAGUGGCUGUGGCUAUACUGCC [C8U C10U G40U] | 0.08 |
| GGCAGAGCUCAACACACCGUGGCAAAGUGGCUGUGGCUAGAAGGCC [G17C C42A U43G] | 0.02 |
| GGCAGAGCUCCACACAGCGUGGCAAAGUGGCGGUAGCUAGACUGCC [A11C U32G G35A] | 0.02 |
| GGCAUAGCUCAACACAGCGGGGCAAAUCGGCUGUGGCUAGACUGCC [G5U U20G G27U U28C] | 0.12 |
| GGCAUAGAUCAACACAGCGUGGCAAAGUGACUGUGGCUAGACUGCC [G5U C8A G30A] | 0.33 |
| GGCAGCGUUCAACACAGCGUGGGAAAAUGGCUAUGGCUAGAAUACC [A6C C8U C23G G27A G33A C42A G44A] | 0.06 |
| GGCAGUGAUCAACACAGCAUGGCAAAGUGGCUGUGGUUAGACUGCC [A6U C8A G19A C37U] | 0.37 |
| GGCAGAACUCAACAGAGUGUGGCAAAGUCGCUAUGGCUAGACUGCC [G7A C15G C18U G29C G33A] | 0.03 |
| GGCAGAGCUCAACACAGCGUGGCAAUGUGGCUGUUGCUAGACGGGC [A26U G35U U43G C45G] | 0.1 |
| GGCAGAGCCCAACCCAGCGUGCCAAAGUGGCUGUGGAUAUACUGCC [U9C A14C G22C C37A G40U] | 0.01 |
| GGCAGAGCUCAAUACAUCGUGGCAAAGUGGCUCUGGCUAGAUUGCC [C13U G17U G33C C42U] | 0.03 |
| GGCAGAGCUGAACACAGCGUUGCAAAGUGGCGGUGGCUAGACUGGA [C10G G21U U32G C45G C46A] | 0 |
| GGCAGAGCUCAACACAGCGUGGCUAAGUGGCUGUGGCUAAAGUCCC [A24U G40A C42G G44C] | 0.06 |
| GGCAGAGCUCAACACAGCGUAGCAACGUGGCUGUGGCUAGACUGCA [G21A A26C C46A] | 1.27 |
| GGCAGAGCUCAACACAGUGUGGCAAAGGUGCGGUGGCUAGACUGCU [C18U U28G G29U U32G C46U] | 0.08 |
| GGCAGAGCUCAAGACAACGUGGCAAAGUGGCUGUCGCUAGACUGGC [C13G G17A G35C C45G] | 0.08 |

| Variant | self-cleavage |
| --- | --- |
| GCCAGAGCUCAACACAGCGUUGCAAAGUGGCCGUGGCUAGACUGCU [G2C G21U U32C C46U] | 0.1 |
| GGCAGAGCUCCACACAGCGUGCCAAAGUGGCGGUGGCUAGACUGCC [A11C G22C U32G] | 0 |
| GGCAGAGCUCAAUACAGCGUGGCAUAGUGGCCGAGGCUAGACAGCC [C13U A25U U32C U34A U43A] | 0.13 |
| GGCAGAGCUCAACACAGCGUGGAAAAGUGGCUGUGGCUAGAAUGCG [C23A C42A C46G] | 0.05 |
| GGCAGAGCUCUCCACAGCGUGGCAAAGUGCCUGUGGCUAGACUGCC [A11U A12C G30C] | 0.04 |
| GGUAGAGCUCAACACAGAGUAGCAAAGUGGCUGUGGCUAGACUGCC [C3U C18A G21A] | 0.11 |
| GGCAGAGCACAACAGAGCGUGGCAAAGUAGCUGUAGCUAGACUGCC [U9A C15G G29A G35A] | 0.11 |
| CGCAGAGCUCAACACACCGUGGCAAAGUGGCUGUGGCUCGACUGCC [G1C G17C A39C] | 0.01 |
| GGCAGAGCUCAACAAAGCGUGGCAAAGUGGCUGUGGCUAUACUGAC [C15A G40U C45A] | 0.06 |
| GGCAGAUCUCAACACAGCGUGGCAAAGUGGAUUUGGCUAAACUGUC [G7U C31A G33U G40A C45U] | 0.09 |
| GGCAGAGCUUAUCACAGCGAGGCAAGGUGGCUGUGGCUAGACAGCC [C10U A12U U20A A26G U43A] | 0.02 |
| GGCAGAGCUCAACACAGCGUGGCAAAGUGGUUGUGGCUAAACUUCC [C31U G40A G44U] | 0.02 |
| GGCAGAGCUCUACACAGCGUGGCAAAGUGGUUGUGGCUAGACCGCC [A11U C31U U43C] | 0.06 |
| GGCAGAGCUCGACACGGCGUGCCAAAGUGGCUGUGGCUAGACUGCU [A11G A16G G22C C46U] | 0 |
| UGCAGAGAUCAACACAGCGUGGCAAAGUGUAUGUGGCUAGACUGCC [G1U C8A G30U C31A] | 0.04 |
| GGCAGAGCUCUACACAGAGUGGCACAGUGGCUGUGGCUUGACUGCC [A11U C18A A25C A39U] | 0.04 |
| GGCAGAGCUCAACACAGCGUGGCAAGGUGGCUGUGACUCGACUGCC [A26G G36A A39C] | 0.06 |
| GGCAGAUCCCAACACAGCGAGGCAAACUGGCUGUGGCUAGACUGCC [G7U U9C U20A G27C] | 0.03 |
